The source gives many values for each of these; only a part stands here.
Test: xn = mol fraction of the nth substance listed

C1COCCO1 + O
Details	viscosity [mPa·s]
306.15 K, 101 kPa, x1 = 0.1114	1.372
306.15 K, 101 kPa, x1 = 0.1433	1.482
306.15 K, 101 kPa, x1 = 0.1726	1.55
306.15 K, 101 kPa, x1 = 0.2065	1.588
306.15 K, 101 kPa, x1 = 0.2501	1.6
306.15 K, 101 kPa, x1 = 0.3029	1.596
306.15 K, 101 kPa, x1 = 0.356	1.558
306.15 K, 101 kPa, x1 = 0.4203	1.481
306.15 K, 101 kPa, x1 = 0.4996	1.389
306.15 K, 101 kPa, x1 = 0.5367	1.349
306.15 K, 101 kPa, x1 = 0.5999	1.286
306.15 K, 101 kPa, x1 = 0.6479	1.24
306.15 K, 101 kPa, x1 = 0.7309	1.172
306.15 K, 101 kPa, x1 = 0.7621	1.15
306.15 K, 101 kPa, x1 = 0.7953	1.128
306.15 K, 101 kPa, x1 = 0.8686	1.086
306.15 K, 101 kPa, x1 = 0.9092	1.066
306.15 K, 101 kPa, x1 = 0.976	1.038
306.15 K, 101 kPa, x2 = 0.0145	1.035
307.15 K, 101.32 kPa, x1 = 0.02221	0.8448
307.15 K, 101.32 kPa, x1 = 0.04863	0.9971
307.15 K, 101.32 kPa, x1 = 0.08057	1.157
307.15 K, 101.32 kPa, x1 = 0.12	1.31
307.15 K, 101.32 kPa, x1 = 0.1698	1.448
307.15 K, 101.32 kPa, x1 = 0.2347	1.548
307.15 K, 101.32 kPa, x1 = 0.2949	1.529
307.15 K, 101.32 kPa, x1 = 0.323	1.508
307.15 K, 101.32 kPa, x1 = 0.3802	1.449
307.15 K, 101.32 kPa, x1 = 0.4499	1.394
307.15 K, 101.32 kPa, x1 = 0.5367	1.304
307.15 K, 101.32 kPa, x1 = 0.6479	1.158
307.15 K, 101.32 kPa, x1 = 0.7953	1.043
307.15 K, 101.32 kPa, x1 = 0.8686	1.017
307.15 K, 101.32 kPa, x1 = 0.9529	0.9956
308.15 K, 101.33 kPa, x1 = 0.0999	1.273
308.15 K, 101.33 kPa, x1 = 0.1999	1.527
308.15 K, 101.33 kPa, x1 = 0.2998	1.537
308.15 K, 101.33 kPa, x1 = 0.3982	1.445
308.15 K, 101.33 kPa, x1 = 0.4981	1.328
308.15 K, 101.33 kPa, x1 = 0.5981	1.218
308.15 K, 101.33 kPa, x1 = 0.6997	1.131
308.15 K, 101.33 kPa, x1 = 0.7996	1.063
308.15 K, 101.33 kPa, x1 = 0.9	1.02
309.15 K, 101 kPa, x1 = 0.00206	0.7208
309.15 K, 101 kPa, x1 = 0.00628	0.7467
309.15 K, 101 kPa, x1 = 0.01516	0.7958
309.15 K, 101 kPa, x1 = 0.03482	0.8999
309.15 K, 101 kPa, x1 = 0.05303	1.002
309.15 K, 101 kPa, x1 = 0.07366	1.11
309.15 K, 101 kPa, x1 = 0.08413	1.164
309.15 K, 101 kPa, x1 = 0.1114	1.279
309.15 K, 101 kPa, x1 = 0.1433	1.377
309.15 K, 101 kPa, x1 = 0.1726	1.436
309.15 K, 101 kPa, x1 = 0.2065	1.481
309.15 K, 101 kPa, x1 = 0.2501	1.49
309.15 K, 101 kPa, x1 = 0.3029	1.489
309.15 K, 101 kPa, x1 = 0.356	1.458
309.15 K, 101 kPa, x1 = 0.4203	1.391
309.15 K, 101 kPa, x1 = 0.4996	1.312
309.15 K, 101 kPa, x1 = 0.5367	1.273
309.15 K, 101 kPa, x1 = 0.5999	1.212
309.15 K, 101 kPa, x1 = 0.6479	1.172
309.15 K, 101 kPa, x1 = 0.7309	1.114
309.15 K, 101 kPa, x1 = 0.7621	1.094
309.15 K, 101 kPa, x1 = 0.7953	1.074
309.15 K, 101 kPa, x1 = 0.8686	1.036
309.15 K, 101 kPa, x1 = 0.9092	1.017
309.15 K, 101 kPa, x1 = 0.976	0.9913
309.15 K, 101 kPa, x2 = 0.0145	0.988
310.15 K, 101.32 kPa, x1 = 0.02221	0.7849
310.15 K, 101.32 kPa, x1 = 0.04863	0.9238
310.15 K, 101.32 kPa, x1 = 0.08057	1.071
310.15 K, 101.32 kPa, x1 = 0.12	1.213
310.15 K, 101.32 kPa, x1 = 0.1698	1.334
310.15 K, 101.32 kPa, x1 = 0.2347	1.416
310.15 K, 101.32 kPa, x1 = 0.2949	1.399
310.15 K, 101.32 kPa, x1 = 0.323	1.381
310.15 K, 101.32 kPa, x1 = 0.3802	1.333
310.15 K, 101.32 kPa, x1 = 0.4499	1.272
310.15 K, 101.32 kPa, x1 = 0.5367	1.194
310.15 K, 101.32 kPa, x1 = 0.6479	1.082
310.15 K, 101.32 kPa, x1 = 0.7953	0.9696
310.15 K, 101.32 kPa, x1 = 0.8686	0.9523
310.15 K, 101.32 kPa, x1 = 0.9529	0.9309
311.15 K, 101 kPa, x1 = 0.00206	0.6977
311.15 K, 101 kPa, x1 = 0.00628	0.7177
311.15 K, 101 kPa, x1 = 0.01516	0.7578
311.15 K, 101 kPa, x1 = 0.03482	0.8596
311.15 K, 101 kPa, x1 = 0.05303	0.9564
311.15 K, 101 kPa, x1 = 0.07366	1.06
311.15 K, 101 kPa, x1 = 0.08413	1.107
311.15 K, 101 kPa, x1 = 0.1114	1.219
311.15 K, 101 kPa, x1 = 0.1433	1.31
311.15 K, 101 kPa, x1 = 0.1726	1.37
311.15 K, 101 kPa, x1 = 0.2065	1.409
311.15 K, 101 kPa, x1 = 0.2501	1.426
311.15 K, 101 kPa, x1 = 0.3029	1.416
311.15 K, 101 kPa, x1 = 0.356	1.388
311.15 K, 101 kPa, x1 = 0.4203	1.339
311.15 K, 101 kPa, x1 = 0.4996	1.254
311.15 K, 101 kPa, x1 = 0.5367	1.226
311.15 K, 101 kPa, x1 = 0.5999	1.168
311.15 K, 101 kPa, x1 = 0.6479	1.13
311.15 K, 101 kPa, x1 = 0.7309	1.078
311.15 K, 101 kPa, x1 = 0.7621	1.063
311.15 K, 101 kPa, x1 = 0.7953	1.042

Source: the CheMixHub viscosity set
